The record followed here is article PMC4336329 (PLoS ONE, 2015).

Each structure is given as a SMILES string. Out of some 310,000 compounds screened, about 14,000 (4.5%) showed an effect of 50% or more. Effects have a minus sign here. Some of the results follow.
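Note: peak tail current of the secondary pulse compared with the same well before compound.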

This experiment deals with human ether-à-go-go-related gene (hERG) potassium channel (human, UniProt Q12809). Nature of the experiment: primary screen, population patch clamp on CHO cells stably expressing hERG.
Sequence of human ether-à-go-go-related gene (hERG) potassium channel (Q12809 whole entry, looked up): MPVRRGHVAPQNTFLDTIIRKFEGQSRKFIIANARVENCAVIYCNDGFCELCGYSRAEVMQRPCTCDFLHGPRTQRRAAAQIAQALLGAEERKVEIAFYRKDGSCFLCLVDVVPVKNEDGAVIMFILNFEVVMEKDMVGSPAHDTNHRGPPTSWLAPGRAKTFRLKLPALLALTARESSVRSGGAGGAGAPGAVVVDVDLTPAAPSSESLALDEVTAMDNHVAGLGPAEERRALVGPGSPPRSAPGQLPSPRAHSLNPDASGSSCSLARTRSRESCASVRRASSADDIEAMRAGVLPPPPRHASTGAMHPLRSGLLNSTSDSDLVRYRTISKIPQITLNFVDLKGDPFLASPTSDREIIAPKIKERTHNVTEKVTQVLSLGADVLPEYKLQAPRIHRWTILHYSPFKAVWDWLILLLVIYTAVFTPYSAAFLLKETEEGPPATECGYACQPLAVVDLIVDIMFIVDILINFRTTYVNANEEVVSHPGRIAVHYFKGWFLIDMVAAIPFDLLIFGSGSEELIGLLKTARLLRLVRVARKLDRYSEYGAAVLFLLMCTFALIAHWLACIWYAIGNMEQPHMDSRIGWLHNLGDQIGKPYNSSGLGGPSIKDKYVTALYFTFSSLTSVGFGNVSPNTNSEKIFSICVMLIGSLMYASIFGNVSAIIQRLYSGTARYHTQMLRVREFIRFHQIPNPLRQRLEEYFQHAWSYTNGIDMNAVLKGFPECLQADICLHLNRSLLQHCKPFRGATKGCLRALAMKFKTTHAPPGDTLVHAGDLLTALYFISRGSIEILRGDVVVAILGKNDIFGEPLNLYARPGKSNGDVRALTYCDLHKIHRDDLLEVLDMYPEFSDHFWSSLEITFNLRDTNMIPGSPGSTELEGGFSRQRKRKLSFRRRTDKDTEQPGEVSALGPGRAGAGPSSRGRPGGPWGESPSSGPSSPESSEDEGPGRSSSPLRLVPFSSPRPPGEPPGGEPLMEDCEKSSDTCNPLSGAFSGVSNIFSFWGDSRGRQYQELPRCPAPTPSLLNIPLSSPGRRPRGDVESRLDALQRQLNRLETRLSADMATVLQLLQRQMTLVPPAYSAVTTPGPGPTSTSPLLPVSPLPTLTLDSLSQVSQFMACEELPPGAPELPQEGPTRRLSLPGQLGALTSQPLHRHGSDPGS
With `CCOC(=O)C(C)Oc1ccc(NC(=O)C(Cl)(Cl)Cl)cc1` (stereo not drawn), the “hERG current change (%, negative = inhibition) at 10uM” value is listed as -1.3%.

Turning to `C=CCn1cnc2c(nnn2-c2ccc(C)c(Cl)c2)c1=O`, the “hERG current change (%, negative = inhibition) at 10uM” value amounted to 9.05%.

On to `CCOC(=O)Cn1nc(C)cc1NC(=O)c1ccncc1`, for which the “hERG current change (%, negative = inhibition) at 10uM” value was 16.8%.

As to `CCOC(=O)c1c(C)[nH]c(C(=O)Cn2c(=O)c3c(ncn3CC)n(Cc3ccccc3)c2=O)c1C`, the “hERG current change (%, negative = inhibition) at 10uM” value is on record as -0.17%.

Turning to `Cc1ccsc1/C=N/NC(=O)c1nnn(-c2nonc2N)c1-c1ccccc1`, the “hERG current change (%, negative = inhibition) at 10uM” value is on record as -9.93%.

As for `COc1ccc(C(=O)NC(Cc2ccccc2)c2ccc3c(c2)OCCCO3)cc1` (stereo not drawn), the “hERG current change (%, negative = inhibition) at 10uM” value is 0.594%.

`Cc1cnc(C(=O)OCC(=O)c2ccc(C)s2)cn1`: the “hERG current change (%, negative = inhibition) at 10uM” value is given as 10.9%.

For `C1CCC(Nc2nc3nonc3nc2N2CCSCC2)C1`, the “hERG current change (%, negative = inhibition) at 10uM” value came to 6.25%.

With `CC(C)(C)n1nc2c(c1NC(=O)c1ccccc1F)CS(=O)C2` (stereo not drawn), the “hERG current change (%, negative = inhibition) at 10uM” value stood at 15.6%.

On to `c1ccc(NCn2cncn2)nc1`, for which the “hERG current change (%, negative = inhibition) at 10uM” value is reported as 17%.

Turning to `CS(=O)(=O)c1ccc2nc(NC(=O)CN3C(=O)C4CC=CCC4C3=O)sc2c1` (stereo not drawn), the “hERG current change (%, negative = inhibition) at 10uM” value was 22.4%.

In the case of `COc1cccc(/C=N/n2c(SC)nnc2-c2ccccc2)c1OC`, the “hERG current change (%, negative = inhibition) at 10uM” value is listed as -34.9%.

Regarding `O=c1/c(=C\c2ccc(O)cc2)sc2nc(-c3ccccc3)c(-c3ccccc3)n12`, the “hERG current change (%, negative = inhibition) at 10uM” value is 3.37%.

Consider `CN(C)/C=C1\C(=O)N(c2ccc(Cl)c(Cl)c2)CS1(=O)=O`, for which the “hERG current change (%, negative = inhibition) at 10uM” value came out at 13.7%.

For the compound `O=C(CCC(=O)N1CCN(c2ccccc2)CC1)Nc1nnc(C2CCCCC2)s1`, the “hERG current change (%, negative = inhibition) at 10uM” value was determined as 6.92%.

With `COC(=O)C[C@H]1c2cc(C(F)(F)F)ccc2S(=O)(=O)N1c1ccc(N(C)C)cc1`, the “hERG current change (%, negative = inhibition) at 10uM” value is -20.9%.

For `Cn1nnnc1SCc1cccc(CSc2nnnn2C)n1`, the “hERG current change (%, negative = inhibition) at 10uM” value is given as -7.41%.

As for `CCN1CCN(C(c2cccs2)C(C)NC(=O)c2cccnc2)CC1` (stereo not drawn), the “hERG current change (%, negative = inhibition) at 10uM” value is listed as 14%.

On to `O=C(CN1C(=O)COc2ccccc21)NCCN1CCc2ccccc2C1`, for which the “hERG current change (%, negative = inhibition) at 10uM” value is on record as 2.95%.

Take `COc1ccccc1OCCn1c(CO)nc2ccccc21`: the “hERG current change (%, negative = inhibition) at 10uM” value is 5.17%.

On to `Cc1ccc(NC(=O)COc2cccc(-n3cnnn3)c2)cc1S(=O)(=O)N1CCOCC1`, for which the “hERG current change (%, negative = inhibition) at 10uM” value is reported as -24.3%.

On to `CCOc1cc(C(=O)N2CCN(C/C=C/c3ccccc3)CC2)cc(OCC)c1OCC`, for which the “hERG current change (%, negative = inhibition) at 10uM” value is recorded as -46.3%.

With `COc1cc(C(=O)OCC(=O)Nc2ccccc2C(=O)NC2CC2)c([N+](=O)[O-])cc1OC`, the “hERG current change (%, negative = inhibition) at 10uM” value was -2.61%.

Consider `C=CCn1c(CNc2ccccc2)nnc1SCC(=O)N/N=C/c1ccc(O)cc1O`, for which the “hERG current change (%, negative = inhibition) at 10uM” value came out at 7.77%.

Regarding `COc1ccc(OC)c(NC(=O)c2cc(S(=O)(=O)NCc3ccco3)ccc2F)c1`, the “hERG current change (%, negative = inhibition) at 10uM” value is listed as 0.414%.

Take `O=C(COC(=O)c1ccc2c(c1)C(=O)N(CCc1ccccc1)C2=O)Nc1ccc(OC(F)F)cc1`: the “hERG current change (%, negative = inhibition) at 10uM” value was 12.7%.

For `CC(C)(C)c1ccc(C(=O)C2CCCN(C(=O)CN3CCCC3=O)C2)cc1` (stereo not drawn), the “hERG current change (%, negative = inhibition) at 10uM” value was -7.36%.

As for `COCCNC(=O)CCCCCn1c(=S)[nH]c2ccccc2c1=O`, the “hERG current change (%, negative = inhibition) at 10uM” value is 5.35%.

Take `O=C(OCc1c(Cl)cccc1Cl)c1cccnc1`: the “hERG current change (%, negative = inhibition) at 10uM” value was -7.88%.

Consider `Cc1n[nH]c(=O)c2c(NC(=O)COC(=O)c3ncc(Cl)c(Cl)c3Cl)oc(C)c12`, for which the “hERG current change (%, negative = inhibition) at 10uM” value is on record as -0.938%.

With `COc1ccc(NC(=O)/C(C#N)=C\c2ccc(-c3cccc(C(=O)O)c3C)o2)cc1`, the “hERG current change (%, negative = inhibition) at 10uM” value was -9.67%.

For the compound `O=C(CSc1nnc2ccccn12)NCc1ccc2c(c1)OCO2`, the “hERG current change (%, negative = inhibition) at 10uM” value was 7.16%.

Take `COc1ccc(NC(=S)N(CCc2c(C)[nH]c3ccc(C)cc23)Cc2ccco2)cc1`: the “hERG current change (%, negative = inhibition) at 10uM” value came out at 6.18%.

As to `O=C(N[C@@H](c1ccccc1)[C@@H]1C[C@H]1C(=O)NCc1ccccn1)OCc1ccccc1`, the “hERG current change (%, negative = inhibition) at 10uM” value was -40.3%.

On to `CCOc1ccc2nc(C)cc(Nc3cccc([N+](=O)[O-])c3)c2c1.Cl`, for which the “hERG current change (%, negative = inhibition) at 10uM” value is -30.4%.

As for `O=C(CN1CCN(c2ccc(F)cc2)CC1)N(C1CCCC1)C1CCS(=O)(=O)C1` (stereo not drawn), the “hERG current change (%, negative = inhibition) at 10uM” value was -40.4%.

Regarding `Cc1cc(C)n(C(C)CNC(=O)c2ccc3c(c2)OCO3)n1` (stereo not drawn), the “hERG current change (%, negative = inhibition) at 10uM” value was 14.2%.

With `C#Cc1ccc(CN2CCCC(C(=O)Nc3ccccc3Oc3cccnc3)C2)cc1` (stereo not drawn), the “hERG current change (%, negative = inhibition) at 10uM” value is reported as -58.5%.

Take `O=C(CNCC1CCCCC1)Nc1ccccc1N1CCCCC1.O=C(O)C(=O)O`: the “hERG current change (%, negative = inhibition) at 10uM” value is listed as -15.3%.

With `O=C(CCNC(=O)C1CCN(S(=O)(=O)c2ccc(F)cc2)CC1)NCc1ccc(Cl)cc1`, the “hERG current change (%, negative = inhibition) at 10uM” value amounted to 12.7%.

Turning to `CCOC(=O)c1c(C)[nH]c(C(=O)C(C)Cl)c1C` (stereo not drawn), the “hERG current change (%, negative = inhibition) at 10uM” value is on record as -8.78%.

Regarding `CC(C)Cc1cc(CN2CCC(CO)(Cc3ccccc3)CC2)[nH]n1`, the “hERG current change (%, negative = inhibition) at 10uM” value was -71.6%.

Regarding `CCN(CCNC(=O)CN(C)S(=O)(=O)c1cccc2nsnc12)c1ccccc1`, the “hERG current change (%, negative = inhibition) at 10uM” value was -37.5%.

In the case of `CCOC(=O)C(C)(C)N(Cc1ccccc1C)S(=O)(=O)c1ccc(Cl)c([N+](=O)[O-])c1`, the “hERG current change (%, negative = inhibition) at 10uM” value is given as 1.31%.

As for `Cc1ccc(NC(=O)Cn2c(O)c(N=NC(=O)c3cc([N+](=O)[O-])ccc3O)c3ccccc32)cc1`, the “hERG current change (%, negative = inhibition) at 10uM” value was -7.35%.

For `O=C(CNC(=O)c1ccco1)NC1CCCCCC1`, the “hERG current change (%, negative = inhibition) at 10uM” value was 5.68%.

With `CCn1c(SCC(=O)N/N=C/c2ccc(C)o2)nnc1-c1ccccc1`, the “hERG current change (%, negative = inhibition) at 10uM” value is given as -8.62%.

Regarding `CCOC(=O)C1CCN(S(=O)(=O)c2c(Cl)ccc3nonc23)CC1`, the “hERG current change (%, negative = inhibition) at 10uM” value is recorded as 9.46%.

In the case of `CC(=O)Nc1ccc(NC(=O)C2CC(=O)Nc3ncnn32)cc1` (stereo not drawn), the “hERG current change (%, negative = inhibition) at 10uM” value was found to be 7.42%.

Turning to `O=C(NNC(=S)NC(=O)c1ccccc1[N+](=O)[O-])c1ccc(Cl)cc1Cl`, the “hERG current change (%, negative = inhibition) at 10uM” value is on record as -58.2%.

`COc1ccc(NC(c2ccccc2)c2ccncc2)cc1.Cl` (stereo not drawn): the “hERG current change (%, negative = inhibition) at 10uM” value worked out at 4.14%.

Turning to `Cc1c(S(=O)(=O)Nc2ccc(Oc3ccccc3)cc2)c(=O)n(C)c(=O)n1C`, the “hERG current change (%, negative = inhibition) at 10uM” value was -24.9%.

`COc1ccc(-c2cc(C(F)(F)F)nc(N3CCOCC3)n2)cc1`: the “hERG current change (%, negative = inhibition) at 10uM” value is 18.9%.

For the compound `O=C(CCCNC(=O)c1ccc(Cl)cc1)Nc1ccccc1C(F)(F)F`, the “hERG current change (%, negative = inhibition) at 10uM” value is given as -2.39%.
